From article PMC6756068, “The NF2 tumor suppressor merlin interacts with Ras and RasGAP, which may modulate Ras signaling” (Oncogene, 2019) come the findings set out here.

By UniProt entry, the sequences of proteins in these tests, tags left out. Where a name states a change or a piece, a line headed by the entry shows the natural chain unless it says otherwise. Chains listed by the source or under a name are the forms on record and can include a tag or linker.
merlin S518A in cell lysate (P35240, form named): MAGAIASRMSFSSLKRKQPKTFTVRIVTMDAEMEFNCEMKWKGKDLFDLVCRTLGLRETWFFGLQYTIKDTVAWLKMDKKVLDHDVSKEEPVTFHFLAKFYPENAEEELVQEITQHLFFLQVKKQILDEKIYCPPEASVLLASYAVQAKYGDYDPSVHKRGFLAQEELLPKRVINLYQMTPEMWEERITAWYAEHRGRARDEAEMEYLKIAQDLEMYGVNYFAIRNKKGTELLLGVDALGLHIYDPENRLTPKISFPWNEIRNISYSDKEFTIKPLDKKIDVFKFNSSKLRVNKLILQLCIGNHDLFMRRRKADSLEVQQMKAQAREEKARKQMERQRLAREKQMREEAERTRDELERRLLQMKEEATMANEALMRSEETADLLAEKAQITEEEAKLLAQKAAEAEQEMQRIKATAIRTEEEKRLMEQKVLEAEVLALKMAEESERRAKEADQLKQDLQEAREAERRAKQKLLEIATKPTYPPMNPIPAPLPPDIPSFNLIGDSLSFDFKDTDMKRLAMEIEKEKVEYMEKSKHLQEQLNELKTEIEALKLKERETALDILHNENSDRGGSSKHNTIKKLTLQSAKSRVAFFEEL
merlin S518D in cell lysate (P35240, form named): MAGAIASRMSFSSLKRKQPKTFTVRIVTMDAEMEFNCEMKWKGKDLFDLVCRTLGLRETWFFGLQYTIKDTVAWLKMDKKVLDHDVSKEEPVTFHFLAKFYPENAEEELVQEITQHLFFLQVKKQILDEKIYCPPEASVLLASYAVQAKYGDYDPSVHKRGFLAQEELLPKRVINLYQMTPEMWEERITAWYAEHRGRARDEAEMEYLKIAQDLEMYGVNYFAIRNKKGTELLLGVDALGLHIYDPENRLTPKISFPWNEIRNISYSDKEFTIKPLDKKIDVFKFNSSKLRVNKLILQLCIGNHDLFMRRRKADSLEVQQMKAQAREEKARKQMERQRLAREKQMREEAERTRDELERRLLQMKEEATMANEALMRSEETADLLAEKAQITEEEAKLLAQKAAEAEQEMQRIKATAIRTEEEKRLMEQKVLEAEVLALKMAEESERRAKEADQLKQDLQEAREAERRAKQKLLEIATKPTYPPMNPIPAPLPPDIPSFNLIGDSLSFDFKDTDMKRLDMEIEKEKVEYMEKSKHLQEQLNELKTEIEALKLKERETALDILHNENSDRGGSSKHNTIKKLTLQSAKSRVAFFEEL
UniProt P15311: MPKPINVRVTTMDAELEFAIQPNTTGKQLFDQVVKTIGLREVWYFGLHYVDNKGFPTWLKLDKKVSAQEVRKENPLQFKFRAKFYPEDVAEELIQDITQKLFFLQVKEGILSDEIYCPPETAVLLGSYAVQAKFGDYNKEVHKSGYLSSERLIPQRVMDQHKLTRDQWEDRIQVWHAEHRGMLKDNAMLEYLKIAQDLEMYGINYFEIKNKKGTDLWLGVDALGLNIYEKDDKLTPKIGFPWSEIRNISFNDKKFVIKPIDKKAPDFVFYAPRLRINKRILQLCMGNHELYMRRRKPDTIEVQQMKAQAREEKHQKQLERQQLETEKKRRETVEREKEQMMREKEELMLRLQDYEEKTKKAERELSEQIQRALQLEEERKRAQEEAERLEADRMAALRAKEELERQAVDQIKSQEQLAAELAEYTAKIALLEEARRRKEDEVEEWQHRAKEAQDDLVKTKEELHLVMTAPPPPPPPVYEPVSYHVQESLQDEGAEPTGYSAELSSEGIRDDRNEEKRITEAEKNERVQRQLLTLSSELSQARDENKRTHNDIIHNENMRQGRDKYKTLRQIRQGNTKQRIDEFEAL

These are yes or no findings as the source states them, for the method shown. For some of these results: In cells and extracts the contact can be indirect. Some binding calls cover weakened binding; strength is not graded here. For some of these results: Tags and fused reporters may be left off the sequences shown.

One assay has as its target T1, Cerl-RasGAP (UniProt P20936).
T1 sequence: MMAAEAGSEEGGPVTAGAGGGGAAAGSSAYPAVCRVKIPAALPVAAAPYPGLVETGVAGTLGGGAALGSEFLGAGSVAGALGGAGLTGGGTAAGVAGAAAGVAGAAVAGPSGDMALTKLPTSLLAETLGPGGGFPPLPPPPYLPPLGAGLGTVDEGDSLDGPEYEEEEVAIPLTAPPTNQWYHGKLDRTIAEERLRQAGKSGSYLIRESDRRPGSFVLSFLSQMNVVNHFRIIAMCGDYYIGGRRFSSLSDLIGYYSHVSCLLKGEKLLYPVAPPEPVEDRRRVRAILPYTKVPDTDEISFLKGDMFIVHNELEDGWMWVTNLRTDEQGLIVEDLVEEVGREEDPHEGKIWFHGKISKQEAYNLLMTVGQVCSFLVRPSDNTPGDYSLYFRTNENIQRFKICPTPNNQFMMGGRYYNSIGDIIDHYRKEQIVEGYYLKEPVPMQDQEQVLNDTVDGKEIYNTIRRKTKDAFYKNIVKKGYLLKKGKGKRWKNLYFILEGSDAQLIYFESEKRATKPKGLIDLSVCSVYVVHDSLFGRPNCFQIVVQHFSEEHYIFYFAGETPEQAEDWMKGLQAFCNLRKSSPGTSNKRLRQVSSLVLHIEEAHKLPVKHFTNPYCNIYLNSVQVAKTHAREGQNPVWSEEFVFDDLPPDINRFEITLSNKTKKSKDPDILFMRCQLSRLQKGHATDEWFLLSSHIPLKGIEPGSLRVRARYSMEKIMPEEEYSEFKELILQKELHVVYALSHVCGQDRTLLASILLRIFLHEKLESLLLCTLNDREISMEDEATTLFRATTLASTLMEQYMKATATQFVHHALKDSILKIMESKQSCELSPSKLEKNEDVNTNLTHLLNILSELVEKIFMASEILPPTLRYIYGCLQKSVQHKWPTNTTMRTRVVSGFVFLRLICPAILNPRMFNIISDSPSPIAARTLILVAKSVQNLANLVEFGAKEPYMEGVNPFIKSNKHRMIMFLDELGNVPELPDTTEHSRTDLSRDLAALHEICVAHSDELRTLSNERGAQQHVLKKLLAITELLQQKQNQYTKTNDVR
The assay is described as follows: split reporter; BiFC with split cerulean (Cerf, Cerl) constructs cotransfected with pEYFP-C1 into 293T cells, fixed about 48 h later.

Assay [1] concerns the target GST-merlin FERM (aa 1–313) (UniProt P35240). The assay is described as follows: pull-down; GST-merlin fragments pull down HRas 1–166 preloaded with GDP or GTPγS; western blot; all proteins purified from E. coli; both purified. On the technique in general: Immunoblotting shows a protein as a band on a membrane.
Assay [2] concerns the target GST-merlin α-helical-tail domains (aa 312–595) (UniProt P35240). The assay is described as above.
The target in assay [3] is T2, GST-RasGAP (construct not told; GST pull-downs of Figures S5 and S6) (UniProt P20936).
T2 sequence: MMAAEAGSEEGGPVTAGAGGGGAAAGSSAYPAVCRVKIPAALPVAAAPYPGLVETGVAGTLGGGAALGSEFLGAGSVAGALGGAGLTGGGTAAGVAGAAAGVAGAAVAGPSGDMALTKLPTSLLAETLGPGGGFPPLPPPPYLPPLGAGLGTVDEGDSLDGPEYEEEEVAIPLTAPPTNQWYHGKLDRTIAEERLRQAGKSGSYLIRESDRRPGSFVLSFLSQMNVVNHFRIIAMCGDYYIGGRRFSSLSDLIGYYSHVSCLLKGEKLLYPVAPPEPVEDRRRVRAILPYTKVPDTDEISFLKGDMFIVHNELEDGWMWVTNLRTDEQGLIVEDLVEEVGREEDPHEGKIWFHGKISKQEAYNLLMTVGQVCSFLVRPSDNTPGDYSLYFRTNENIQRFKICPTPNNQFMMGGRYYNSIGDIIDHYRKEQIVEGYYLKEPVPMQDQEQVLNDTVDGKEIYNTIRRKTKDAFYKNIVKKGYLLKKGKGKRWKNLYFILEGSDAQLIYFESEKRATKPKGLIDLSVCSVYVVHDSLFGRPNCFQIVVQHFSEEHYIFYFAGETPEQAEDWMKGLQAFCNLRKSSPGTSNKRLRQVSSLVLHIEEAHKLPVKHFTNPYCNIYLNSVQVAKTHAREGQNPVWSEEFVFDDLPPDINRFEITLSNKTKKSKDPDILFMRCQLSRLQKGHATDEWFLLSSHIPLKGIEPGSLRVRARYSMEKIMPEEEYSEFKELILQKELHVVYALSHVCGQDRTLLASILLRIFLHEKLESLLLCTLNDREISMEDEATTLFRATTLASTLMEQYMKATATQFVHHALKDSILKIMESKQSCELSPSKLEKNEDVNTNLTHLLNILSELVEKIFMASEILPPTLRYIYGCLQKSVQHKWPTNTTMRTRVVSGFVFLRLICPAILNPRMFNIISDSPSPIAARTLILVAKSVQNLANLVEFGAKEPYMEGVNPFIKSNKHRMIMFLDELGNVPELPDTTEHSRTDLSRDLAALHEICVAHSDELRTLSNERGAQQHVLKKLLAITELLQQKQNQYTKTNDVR
The assay is described as follows: pull-down; GST pulldown with the lysate from 293 cells, which express all ERMs and merlin; only the target purified.

The next assay addresses T3, GST-RasGAP FL (UniProt P20936).
T3 sequence: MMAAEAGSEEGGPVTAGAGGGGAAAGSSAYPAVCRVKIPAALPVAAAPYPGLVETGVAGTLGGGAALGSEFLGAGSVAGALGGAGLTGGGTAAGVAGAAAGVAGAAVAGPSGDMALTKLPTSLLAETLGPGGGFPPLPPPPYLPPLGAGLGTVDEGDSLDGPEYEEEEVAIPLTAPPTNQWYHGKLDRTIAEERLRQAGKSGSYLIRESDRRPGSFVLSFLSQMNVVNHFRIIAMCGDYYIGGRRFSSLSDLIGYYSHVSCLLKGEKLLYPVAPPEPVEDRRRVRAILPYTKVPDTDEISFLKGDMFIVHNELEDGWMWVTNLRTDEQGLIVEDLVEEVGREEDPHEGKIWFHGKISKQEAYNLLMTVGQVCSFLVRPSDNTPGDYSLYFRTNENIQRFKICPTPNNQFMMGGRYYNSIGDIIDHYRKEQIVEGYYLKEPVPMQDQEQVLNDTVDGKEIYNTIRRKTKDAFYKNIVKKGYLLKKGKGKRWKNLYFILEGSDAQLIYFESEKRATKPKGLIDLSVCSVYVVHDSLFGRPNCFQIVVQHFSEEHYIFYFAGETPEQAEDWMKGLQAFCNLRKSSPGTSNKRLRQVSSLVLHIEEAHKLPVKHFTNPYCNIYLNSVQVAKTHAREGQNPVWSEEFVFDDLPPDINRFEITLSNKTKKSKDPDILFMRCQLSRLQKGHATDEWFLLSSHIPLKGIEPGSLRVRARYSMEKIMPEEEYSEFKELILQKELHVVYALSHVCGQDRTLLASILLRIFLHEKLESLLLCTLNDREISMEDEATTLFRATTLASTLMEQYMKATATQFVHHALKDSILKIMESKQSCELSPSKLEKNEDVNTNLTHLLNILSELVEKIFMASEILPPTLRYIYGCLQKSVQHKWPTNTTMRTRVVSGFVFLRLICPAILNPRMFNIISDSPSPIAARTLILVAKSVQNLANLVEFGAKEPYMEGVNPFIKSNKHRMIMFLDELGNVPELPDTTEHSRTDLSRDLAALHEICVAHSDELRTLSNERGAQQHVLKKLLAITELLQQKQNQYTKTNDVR
The experiment in a line: pull-down; GST-RasGAP fragments pull down merlin from indicated cell lysates; western blot; only the target purified.

On to Cerf-merlin (from UniProt P35240 1-595), for which, in the assay with Cerl-RasGAP, the binding entry is on record as “binds”. For the substance “HRas 1–166 (from UniProt P01112 1-166) (domain or fragment)”, the binding entry is reported as “binds weakly” in assay [1] and “no binding” in assay [2].

“endogenous merlin of 293 cells (from UniProt P35240 1-595)”: the binding entry in assay [3] was “binds”.

For the substance “ezrin of 293 cells (from UniProt P15311 1-586)”, the binding result in assay [3] is listed as “no binding”. As for “merlin S518A in cell lysate (from UniProt P35240 1-595)”, the binding result with GST-RasGAP FL was “binds”. The same measure, in the same setting: the value for “merlin S518D in cell lysate (from UniProt P35240 1-595)” was “binds”.
